Data published in publication PMC10668032.
The other results are listed elsewhere or left out. At the low end of the ranking, values are background and their order means little.

Molecular target: SIX1 homeodomain (reference allele) (UniProt Q15475)
Experiment: universal protein binding microarray
Details: Universal all-10-mer PBM (8x60K, AMADID 030236), 300 nM GST-tagged protein, Alexa Fluor 488 anti-GST; buffer, salt, pH and temperature not stated; high values mean tight binding; most listed sequences are background and not binding sites; double strand, one strand shown

Sequence | binding signal
ATTACCGG | -0.00501 E-score
AGTCCGCC | -0.227 E-score
CATGTAAG | -0.037 E-score
GACCGAAA | -0.277 E-score
ATCGGGGG | 0.223 E-score
CGGCTTGA | -0.0287 E-score
CCTGCTAA | -0.0332 E-score
CTGCTGCC | -0.156 E-score
AGATTCAT | 0.11 E-score
CATATTCG | -0.021 E-score
ATTTTCGA | -0.00032 E-score
CCTTTGGA | -0.124 E-score
ATCAGATC | 0.394 E-score
AGATCTGC | 0.204 E-score
CCTTTGGC | -0.112 E-score
CTGTCCTA | -0.176 E-score
GGGACGAA | -0.243 E-score
ATAGGCAG | 0.184 E-score
CTTTGGAC | -0.141 E-score
GACTGAAA | -0.253 E-score
GAAGCGAA | -0.377 E-score
CTAATCAG | 0.0087 E-score
GCTGACAA | -0.164 E-score
ACGGGTGC | -0.0844 E-score
GAGACACC | 0.306 E-score

Sequence | binding signal
ACGCCGGG | 0.0213 E-score
GATGCCTA | -0.00417 E-score
TTTAGAAA | -0.127 E-score
CCGATGTC | -0.156 E-score
TAGCGATA | 0.38 E-score
CCGACCCG | 0.108 E-score
ACACGCTC | -0.0153 E-score
AGCAACCA | -0.137 E-score
CAGGATCA | 0.386 E-score
ATTCGCGA | 0.107 E-score
AAATGCAA | -0.251 E-score
CTAATACA | 0.0752 E-score
CCGGTGTC | 0.431 E-score
AAGCTAGG | -0.131 E-score
GAGATCTA | 0.172 E-score
ACTACTAG | 0.146 E-score
AACGCCAG | -0.124 E-score
ACCTCTAG | 0.0597 E-score
AGCGTGCC | -0.18 E-score
CGGGTCGA | 0.161 E-score
CACGTTCG | -0.15 E-score
CCGAGCAA | -0.0656 E-score
AATTTAGG | -0.109 E-score
GCTTCTAA | -0.0185 E-score
GGTCAAAA | -0.133 E-score

Sequence | binding signal
CAGGGCGC | -0.0924 E-score
CGCAATGC | -0.0481 E-score
AGTAACGA | -0.12 E-score
CGTTCGAA | -0.0975 E-score
AGCCACTA | -0.0645 E-score
CCCGGGAC | 0.0225 E-score
ATTCGGGA | -0.0545 E-score
CCGCATCA | 0.007 E-score
GCACTCGA | -0.148 E-score
CGCGGGAA | -0.119 E-score
GCAATACC | 0.348 E-score
CGCACTGC | -0.133 E-score
GAGATCCC | 0.378 E-score
CCAAATAA | -0.202 E-score
TAGGCGGA | 0.0675 E-score
CCGGTTGA | 0.105 E-score
AGTTTCAC | -0.144 E-score
CATGACCG | -0.0195 E-score
ACAACGTA | -0.139 E-score
GAGGGCTA | 0.0266 E-score
CGTTGCAC | -0.134 E-score
TATTAAAA | 0.18 E-score
CACCCCAG | 0.221 E-score
GTCTAACA | -0.0192 E-score
CGTGGCCC | -0.216 E-score

Sequence | binding signal
ACGTGATA | 0.344 E-score
ATATTGTG | 0.136 E-score
CGGAGAAC | 0.0501 E-score
AGACTCAA | -0.0485 E-score
GACAGTGA | 0.0434 E-score
CACCGTAG | -0.0238 E-score
ACCGGAAA | -0.0676 E-score
GCACCACA | -0.0302 E-score
AAAAAAAA | -0.172 E-score
CTGCTGGA | -0.0618 E-score
GCTATCAC | 0.357 E-score
ATGTGGGC | -0.0895 E-score
GAGAGGTA | 0.118 E-score
AGGGTCAA | -0.231 E-score
GTTTTACA | -0.109 E-score
ATCATGCA | 0.225 E-score
GTAAAAAC | -0.177 E-score
ACCATCGT | -0.104 E-score
TCACGCAA | -0.0264 E-score
CCTGGCTA | -0.0587 E-score
ACCTCTTA | -0.0505 E-score
AATACGCA | 0.128 E-score
AGGTCATC | -0.0726 E-score
CAAATAAC | -0.121 E-score
ACGTTGAC | -0.225 E-score

Sequence | binding signal
AAGGACTA | -0.125 E-score
CCGTTAAC | -0.109 E-score
ACCGGTGA | 0.127 E-score
ATACCAAC | 0.367 E-score
CGTCGCCA | -0.314 E-score
AAGATCTT | 0.0771 E-score
CCCTCACC | 0.106 E-score
ATATAAGC | 0.129 E-score
AATTTTGC | -0.369 E-score
CCCATACG | 0.033 E-score
ATTTAGCG | -0.114 E-score
CGCCTGCC | -0.0259 E-score
TCGTTGAA | -0.179 E-score
AAACAAGG | -0.0269 E-score
AGCTGAAC | -0.172 E-score
CGACGCGA | -0.068 E-score
AAGAAGTC | 0.00189 E-score
TAGGTATA | 0.382 E-score
AGCGTACA | -0.162 E-score
GGTAATAA | 0.0477 E-score
AAAAAGTC | -0.293 E-score
AGCGATAC | 0.453 E-score
GCTAGCAA | -0.147 E-score
GCGCCGAA | -0.213 E-score
TTAACAAA | -0.309 E-score

Sequence | binding signal
GCGCGCCC | -0.245 E-score
ATTCGCTG | -0.11 E-score
CCCCTTAC | 0.15 E-score
AGAACCTA | -0.0641 E-score
CGCAATCC | 0.229 E-score
GTCCGCGA | -0.0516 E-score
TGAGCTAA | -0.057 E-score
CCCAAGCG | -0.0981 E-score
CTTTTCGC | -0.241 E-score
ATATGTAG | 0.151 E-score
CCGTCCTC | -0.0618 E-score
AAGTGAGT | -0.0153 E-score
TGCAGCCA | -0.0699 E-score
CGCCCAAC | -0.186 E-score
GCATATAC | 0.227 E-score
CAGAGAAC | -0.171 E-score
GATTCATA | 0.107 E-score
ATTCCTGG | 0.019 E-score
AACGGTTC | -0.296 E-score
CATACTGC | -0.0865 E-score
GGGACTAA | -0.195 E-score
CTACTTGA | -0.113 E-score
GCTCTGTA | -0.00024 E-score
AGCTCATC | 0.0766 E-score
ACAGAATG | -0.168 E-score

Sequence | binding signal
ATGGGCGC | -0.259 E-score
ACCTGTGG | -0.0517 E-score
TACAGACA | 0.0658 E-score
AGCCTTGA | -0.0838 E-score
ATCAATAC | 0.367 E-score
CCATAGTC | -0.135 E-score
ACGGTGAT | 0.181 E-score
GGGCAGCA | -0.178 E-score
TCCTAAGA | -0.0408 E-score
GAAGATGA | 0.0209 E-score
GCCCGCCA | -0.0486 E-score
AGGTCAAG | -0.23 E-score
GTCGGGGA | 0.111 E-score
ATGCCATG | 0.0219 E-score
AGCGTAAG | -0.225 E-score
CAAAGAGC | -0.154 E-score
CGAACGGA | 0.134 E-score
CGCTCACC | -0.0796 E-score
CGGATTTA | 0.196 E-score
AGAAACCA | -0.0272 E-score
CACCCCTC | 0.251 E-score
CTGTATCC | 0.387 E-score
GGTAGTCA | -0.00398 E-score
AACAAAGT | -0.163 E-score
GCCTCGCA | -0.125 E-score

Sequence | binding signal
GTGGGTCA | -0.0397 E-score
GGGGAACC | -0.109 E-score
AAGTTAAT | 0.00515 E-score
AACGAAAG | -0.18 E-score
AAGCGTAT | 0.231 E-score
GACTTATC | 0.0464 E-score
AGGCGAAC | -0.135 E-score
CGGTGGAA | -0.225 E-score
AGAGCCAT | -0.0522 E-score
TGGATCCA | 0.295 E-score
CCAAGGGA | 0.0716 E-score
CCGTCCCG | -0.165 E-score
AATTGTCC | -0.285 E-score
CACCCCGG | 0.155 E-score
GATTATAA | 0.165 E-score
CGCGTCTC | 0.0915 E-score
AATCTCCC | 0.13 E-score
CAACGTTC | -0.275 E-score
CTTTCGGA | -0.123 E-score
CCCTTAAA | -0.0185 E-score
CTGTGAAC | -0.133 E-score
CACGATAC | 0.438 E-score
ACGCCTCT | -0.118 E-score
AAAGCTGG | -0.146 E-score
CACCTTCA | 0.0657 E-score

Sequence | binding signal
CGCCCGGA | 0.0225 E-score
CCTTGTCC | 0.0393 E-score
ATTGACGA | 0.0689 E-score
CATAGGAG | -0.113 E-score
CGGTCGTC | -0.12 E-score
CGTATAAG | 0.139 E-score
GGGCAACA | -0.0459 E-score
ATTGTTTC | -0.0781 E-score
CCCTACAA | -0.0638 E-score
CCCCCATC | 0.0706 E-score
CATTTAAC | -0.0253 E-score
GCTAGGTA | 0.0894 E-score
ATCAGTCG | 0.154 E-score
AATGGGCA | -0.226 E-score
ACGCGCAG | -0.047 E-score
ACCGGCGG | -0.0269 E-score
CTCGTCGC | -0.179 E-score
CGGTGAAA | -0.0121 E-score
CGGCTTAA | 0.13 E-score
